We go through one molecule from patent US20170342136A1, “MONOCLONAL ANTIBODY AGAINST MURAMYL PEPTIDES IN PREVENTION AND TREATMENT OF IMMUNE-MEDIATED DISEASES” (Agency for Science, Technology and Research, priority 2015, published 2017).

As a reminder, the Kd is a measure of binding affinity in units of concentration.

Assay [1] concerns T cell proliferation. Description: Flow cytometry analysis of splenocytes of CAIA mice. Conditions: vs control antibody, n=4. Format: in vivo. In general terms: In flow cytometry, cells or beads pass a laser one at a time.
Assay [2] deals with Experimental Autoimmune Encephalomyelitis (EAE) mouse model. Description: Mouse experimental autoimmune encephalomyelitis (EAE) model of multiple sclerosis. The note with it: 150 mg/kg i.p., vs isotype control, n=12. The format is in vivo, female C57BL/6 mice. How it is done: EAE induction was carried out in 42 female C57BL/6 mice (Taconic Farms, 9 weeks old). The induction was carried out according to the following schedule:
Day 0, Hour 0—Immunization with MOG35-55/CFA Day 0, Hour 2—Injection of pertussis toxin Day 1, Hour 0—2nd injection of pertussis toxin (24 hours after initial immunization)
Mice were injected subcutaneously at two sites in the back with the emulsion component (containing MOG35-55) of Hooke Kit™ M OG35-55/CFA Emulsion PTX, catalog number EK-2110 (Hooke Laboratories, Lawrence Mass.). One site of injection was in the area of upper back, approximately 1 cm caudal of the neckline. The second site was in the area of lower back, approximately 2 cm cranial of the base of the tail. The injection volume was 0.1 mL at each site. Within 2 hours of the injection of emulsion, and then again 24 hours after the injection of emulsion, the pertussis toxin component of the kit was administered intraperitoneally. The volume of each injection was 0.1 mL. […]
EAE scores were measured daily from Day 7 after immunization until the end of the study according to the criteria set out in Table 5. Body weights of the mice were measured three times a week (Monday, Wednesday and Friday), starting from Day −1 and until the end of the study. […]

The test system of assay [3] is Staphylococcus aureus cells. Description: Fluorescence microscopy and aggregation of live bacterial cells incubated with 2E7. Format: cell-based. The method, then:
(§1) The standard curve was used to determine the peptidoglycan concentration in a sample. […] Both bacteria were grown to OD600=1.5. Each culture was divided into two, and one treated with 40 μg/ml amoxicillin (Amx) and the other untreated. Aliquots were collected at the indicated times and the amount of MPs in the supernatant was determined by competitive ELISA. […] After removing unbound antibodies by PBS washes, the cells were incubated with a FITC-labeled anti-mouse IgG Ab before fluorescence microscopic examination.
(§2) Both Staphylococcus aureus and Escherichia coli cells were first incubated with 2E7 and then with an anti-mouse IgG Ab conjugated with FITC.

The subject of assay [4] is Escherichia coli cells. The assay is described as above. Format: cell-based. How it is done: as §1, §2
For assay [5], the system named is Collagen Antibody Induced Arthritis (CAIA) mouse model. Kind of assay: CAIA mouse model, therapeutic study, clinical paw score. Format: in vivo, Balb/c mice. How it is done: (§3) CAIA was induced in 9-10 weeks old Balb/c mice by intravenous injection of 3 mg of Arthogen-CIA-5 cocktail from the tail vein on Day 0 and intraperitoneal injection of 25 µl of LPS on Day 3.
On day 2, mice were assessed by paw score (Table 3) and assigned to groups in a manner such that different groups have similar average paw scores. The mice that were extremely sensitive to induction (score from a single paw=4) were excluded from the study. […] On day 3, each mouse was given an intraperitoneal injection of 25 μl of LPS.
Mice were induced for CAIA as a single group on Day 0. On day 2, mice were assessed by paw score (Table 3) and assigned to groups in a manner that different groups have similar average paw scores. The mice that were extremely sensitive to induction (score from a single paw=4) were excluded from the study. […] On day 3, each mouse was given an intraperitoneal injection of 25 µl of LPS. The clinical paw scores of the mice were assessed according to the paw score criteria in Table 3.
The same CAIA mouse model was used. Mice were induced for CAIA as a single group on Day 0. On day 2, mice were assessed by paw score (Table 3) and assigned to groups in a manner that different groups have similar average paw scores. The mice that were extremely sensitive to induction (score from a single paw=4) were excluded from the study. […] On day 3, each mouse was given an intraperitoneal injection of 25 μl of LPS. The clinical paw scores of the mice were assessed according to the paw score criteria in Table 3.

Assay [6] shares this test system. Description: CAIA mouse model, preventive study, clinical paw score. The format is in vivo, Balb/c mice. The note with it: single IP dose, vs isotype control antibody. The method, then:
Balb/c mice were stimulated to develop arthritis by injection with a cocktail of anti-collagen monoclonal antibodies. […] Each of the CAIA mice was given a single dose of intraperitoneal (IP) injection with 2E7 or an isotype control antibody at the onset of rheumatoid arthritis.
as §3
For the study of 2E7 on the prevention of rheumatoid arthritis, mice were randomly assigned to 2E7 treatment group or control group according to body weight.

The nature of assay [7]: ELISA determination of Kd of 2E7 on wells coated with MDP-OVA. Format: binding. How it is done:
After washes to remove unbound Abs, an anti-mouse-IgG Ab coupled with horseradish peroxidase (HSP) was added. After incubation, unbound secondary Ab was removed by washes and a chromogenic substrate of HSP was added. After reaction, the color intensity in each well was measured using a microtiter plate reader at 492 nm. […] Coefficient data: a=2.8768241, b=2.8055033, c=212.44541, and d=0.8659833. Y50=1.45, X=0.00131 μg/ml.
A mAb (2E7) was obtained from immunization of mice with N-acetylmuramyl-L-alanyl-D-isoglutamine. […] An IgG1 mAb that specifically recognizes the glutaraldehyde linker used to couple MDP to HSA was also obtained in the screening of hybridoma clones.
For orientation: In an ELISA, binding on a coated surface is turned into a signal by an enzyme label.

Assay [8] concerns Collagen Antibody Induced Arthritis (CAIA) mouse model. Description: CAIA mouse model, relapse study, clinical paw score. Format: in vivo, Balb/c mice. Conditions: relapse by LPS on Day 16, single IP dose 20 mg, vs control group, n=4. The method, then:
as §3

In assay [9] the test system is NOD2 knockout CAIA mouse models. Description: CAIA in NOD2 knockout mice, clinical paw score. Conditions: single IP dose on Day 2 vs control antibody. The format is in vivo, Nod2 knock-out mice in C57B/L6 background. How it is done: NOD2 is an intracellular pattern recognition receptor, which is similar in structure to resistant proteins of plants and recognizes molecules containing the specific structure of MDP. […] To test this hypothesis, Nod2 knock-out mice in C57B/L6 background were induced for CAIA as a single group on Day 0, by intravenous injection of 5 mg of Arthogen-CIA-5 cocktail from the tail vein. On day 2, mice were assessed by paw score (Table 3) and assigned to groups in a manner that different groups have similar average paw scores. The mice that were extremely sensitive to induction (score from a single paw=4) were excluded from the study. […] On day 3, each mouse was given an intraperitoneal injection of 50 μl of LPS. Higher amount of Arthogen-CIA-5 cocktail and LPS were used since mice in C57B/L6 background are more resistant to the CAIA induction than mice in Balb/c background.

Assay [10] has as its system pro-inflammatory cytokines. Description: Luminex assay on sera from CAIA mice. Format: in vivo. Conditions: vs control antibody, n=8. How it is done: Luminex assay was performed on the sera from the CAIA mice treated with control or 2E7 antibody.

Entries after “also recorded” stand apart in the source; their conditions may differ.

B1: 2E7: mouse monoclonal antibody against muramyl dipeptides; heavy chain variable SEQ ID NO: 3, light chain variable SEQ ID NO: 4 (antibody)
heavy: MLVESGGGLVQPGGSMKLSCIVSGFTFSYYWMSWVRQSPEKGFEWVAEIRLKSENYATNYTESVKGKFTISRDDSKSRLYLQMNSLGAEDTGIYYCLTGYAWFAYWGQGTLVTVSAAKTTPPSVYPLAPGSAAQTNSMVTLGCLVKGYFPEPVTVTWNSGSLSSGVHTFPAVLQSDLYTLSSSVTVPSSTWPSETVTCNVAHPASSTK
light: DVQMIQSPKRLIYLVSKLDSGVPDRFTGSGSGTDFTLKISRVEAEDLGVYYCVQHTHFPTFGGGTKLEIKRADAAPTVSIFPPSSEQLTSGGASVVCFLNNFYPKDINVKWKIDGSERQNGVLNSWTDQDSKDSTYSMSSTLTLTKDEYERHNSYTCEATHKTSTSPIVKSFNRNEC
modifications: Heavy chain of the variable region of 2E7; Light chain of the variable region of 2E7
B1: in assay [1], the “T cell proliferation in CD4+ T-cells” value is “significantly reduced” and the “T cell proliferation in CD8+ T-cells” value is “significantly reduced”. Further, the “clinical symptoms, paralysis of the limbs and tail (EAE score)” value in [2] (three doses (1st, 4th and 7th day of disease)) was “significantly improved; also recorded: suppressed”. In addition, the “loss of body weight” value in assay [2] (three doses) was “significantly improved; also recorded: significantly reduced”. Besides, the staining of cells result in assay [3] (2E7 then FITC anti-mouse IgG) is “strong staining”. Moreover, the cell aggregation entry in assay [3] (live cells, data not shown) is recorded as “significant cell aggregation”. The staining of cells entry in assay [4] (2E7 then FITC anti-mouse IgG) is given as “weak staining”. Moreover, the cell aggregation result in assay [4] (live cells, data not shown) is “significant cell aggregation”. Further, the clinical paw score result in [5] (2E7 at the onset of rheumatoid arthritis vs control antibody, n=8, p<0.01) was “reduced clinical paw score”. Further, the “efficacy on clinical paw score” value in [5] (single IP dose 10 mg/kg) was “efficacious”. The clinical paw score entry in assay [5] (single IP injection at 10, 40 and 160 mg/kg on Day 2, n=5) is “clear and dose-dependent therapeutic effects”. In addition, in assay [6], the “onset of rheumatoid arthritis” value is “significantly prevented the onset of rheumatoid arthritis”. In assay [7] (MDP-OVA coated plate, OD492, Weibull model fit, IgG MW=150), the dissociation constant (Kd) stood at 8.7 pM. Besides, the “X (2E7 concentration at Y50=1.45)” value in [7] (binding curve on MDP-OVA, OD492) amounted to 0.00131 µg/mL. Besides, the “affinity to MPs” value in [7] (in words) is listed as “picomolar affinity”. Further, the “clinical paw scores on relapse” value in assay [8] was “effectively prevented the increase in clinical paw scores”. Moreover, the progression of arthritis entry in [9] was “not able to suppress disease progression; also recorded: did not significantly suppress the progression of arthritis”. Besides, in [10], the “G-CSF level in sera” value is listed as “significantly reduced”, the “sIL-1RI level in sera” value is listed as “significantly reduced”, the “sIL-6R level in sera” value was “significantly reduced” and the “sVEGFR3 level in sera” value is recorded as “significantly reduced”.
